The supplement of paper PMC3334620
Over roughly 33,000 sequences, “E-score (-0.5 to 0.5)” has its median near -0.032; the highest 2% begin near 0.36. Some of the results follow.

Molecular target: T1, Sko1 (UniProt Q02100)
T1 sequence: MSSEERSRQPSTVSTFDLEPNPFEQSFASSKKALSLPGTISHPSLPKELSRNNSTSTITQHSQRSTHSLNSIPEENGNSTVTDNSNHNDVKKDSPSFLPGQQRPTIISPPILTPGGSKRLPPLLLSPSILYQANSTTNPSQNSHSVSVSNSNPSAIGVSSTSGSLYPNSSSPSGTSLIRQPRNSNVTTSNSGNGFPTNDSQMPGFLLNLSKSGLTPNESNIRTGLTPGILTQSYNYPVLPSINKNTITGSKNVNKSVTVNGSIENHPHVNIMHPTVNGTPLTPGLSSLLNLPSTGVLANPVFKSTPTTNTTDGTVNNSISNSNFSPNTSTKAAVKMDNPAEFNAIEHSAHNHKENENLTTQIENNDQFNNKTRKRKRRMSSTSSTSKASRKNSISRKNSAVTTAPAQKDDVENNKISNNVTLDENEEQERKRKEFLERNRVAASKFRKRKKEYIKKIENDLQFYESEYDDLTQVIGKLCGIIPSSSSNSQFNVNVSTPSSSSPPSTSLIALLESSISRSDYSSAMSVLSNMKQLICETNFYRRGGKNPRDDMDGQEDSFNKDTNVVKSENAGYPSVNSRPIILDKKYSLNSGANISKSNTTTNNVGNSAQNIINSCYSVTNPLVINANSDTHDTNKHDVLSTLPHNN
Experiment: PBM E-score (8-mer binding enrichment) (E-score (-0.5 to 0.5)); higher = stronger / more preferred TF binding; most listed sequences are background and not binding sites
Conditions: protein concentration: 200 nM; construct: GST-full length
How it was run: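 Each ungapped eight-base word and its reverse complement, pooled, received an E-score from the Universal PBM Analysis Suite. Underlying scans, normalised with masliner, recorded fluorescent anti-GST bound to GST-tagged yeast transcription factors. These were applied at about 100-200 nM to universal all-10-mer Agilent arrays double-stranded by primer extension.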

Sequence | PBM E-score
AGCGCACG | 0.0406
AACACTGA | 0.038
GCAGAGCC | -0.218
CTATTGCC | -0.263
AACTCATC | 0.118
GGGCTAAC | -0.164
CGGCGTGC | -0.177
AGAATCAA | -0.0775
CCGTTCAA | -0.222
AACGGAAG | -0.0959
GTAATCCA | 0.193
CACGCTAG | -0.052
CCGAAACC | -0.255
ACTCCATG | -0.171
GTGCTACA | 0.0645
CATCTGCA | 0.00281
GGATCCCC | -0.403
CTTGGCCC | -0.181
AGCTTGTG | -0.00367
GTTGCCCA | 0.00341
TTCGAAAA | 0.187
AGGATGAG | -0.162
TAGCAGAA | 0.0771
ATTTAGCA | 0.133
CCTCTGGC | -0.239

Sequence | PBM E-score
AGGGAGAC | -0.192
ACGTGGAA | 0.311
AAGTAGTA | 0.0972
ATACTCCC | 0.0176
ACCAAGAA | 0.172
CGCGAATC | 0.137
CAATGAAG | 0.0878
AATAGTAT | 0.161
ATGGGGCC | -0.419
AACAGAGA | -0.0711
CTATGTTC | -0.0134
CCATCAAC | 0.0412
AGACCACT | 0.0537
AATAAGTC | 0.0453
GCCAGCGA | -0.296
ACACTAGC | -0.0734
AACGGTTA | -0.175
AACTTATT | 0.123
CGGACACG | 0.0454
AACTGTAG | -0.241
AAGTATCC | -0.0882
CGGGGGTC | -0.208
AAATACAA | 0.218
GCCTGTAC | -0.103
CACTTCGC | 0.127

Sequence | PBM E-score
GGGAACCC | -0.24
CATGAAAA | 0.088
CGACGAGA | -0.0238
CCGGCTCG | -0.183
TACATCAA | 0.255
CCGACTCG | -0.167
AGATTTGG | -0.168
CACAACCA | -0.00372
GAGTGGGC | -0.261
AATTCTGC | 0.0671
AAGCGGCG | -0.118
CTATCGAG | -0.0846
CCGTACTC | -0.132
GGTCACCA | -0.28
GCCGCCTA | -0.267
AAGCTAAT | 0.256
CGTGGGGC | 0.0267
AGTTATCG | 0.0984
CTGTGTAC | 0.00812
ACCAACAT | 0.0437
CCAGCGAA | -0.213
CAGATCCA | -0.0128
CAGGTGAA | 0.0408
CCAAAACC | -0.0066
GTCAACAA | 0.105

Sequence | PBM E-score
AGCCAGCC | -0.251
ACTGTCTG | -0.235
AAATAGTA | 0.074
AGTGTGCC | -0.215
CGGGGGTA | -0.254
CCCGAAAA | -0.0615
AGGCTAAT | -0.0343
CACGCTTA | 0.116
AATGCTGT | 0.0229
GCCTGCCA | -0.265
CATGTACC | 0.0624
ACTGTAAA | 0.121
AAACCAAA | 0.103
CATAAGAC | 0.1
ATGGGTAG | -0.112
TGACCGAA | 0.0365
ACCCGGAG | -0.156
GAGGATTA | -0.0759
GCCGACAC | -0.307
CTTCGATA | 0.118
GAACTTGC | -0.0435
GGCAGTAA | -0.112
GCAGCACA | -0.137
ATCGACTC | -0.165
AGTCATCA | -0.103

Sequence | PBM E-score
AGCCCAAC | -0.106
CGTCGCAG | 0.149
ACGTAACC | 0.469
GGATGGTA | 0.0148
GGACATTA | 0.111
CAATGATG | 0.381
CCCGGTGA | -0.22
ACTGACCG | -0.186
CATCTTGA | -0.0578
GGAGATAC | -0.0954
CTTCCCGA | -0.108
CGTGACAA | 0.188
GGGACGAA | -0.164
CAGGGCGA | -0.0698
ATCTTGAG | 0.0289
AACGCATT | 0.209
CCCCTCCC | -0.251
AATCAAGA | 0.111
TAAAAGTA | 0.0452
ATGGCCCA | 0.019
GATTTCAA | -0.111
TGATAAAA | 0.223
ATGATTAG | 0.15
ATAGGACG | 0.131
GGCTACCA | -0.199

Sequence | PBM E-score
AGCCACCT | -0.098
CGTTACGA | 0.349
GCCGTGAC | 0.143
GCATGCGA | 0.0969
GGTTCTGA | 0.0529
CGGAGCAA | -0.229
CTCTTACA | -0.0812
CGGATCTA | -0.111
ATGTAAAC | 0.257
ACACGCCA | 0.166
ACTCCCGC | -0.186
GTTCGCCA | -0.0644
AAAGGACT | -0.062
GCCCGCAA | -0.228
CATCAAAA | 0.162
AAACTAAG | 0.24
ACAGATAT | 0.096
ACGTTTCG | 0.347
ATCATCAT | 0.332
GAATAGGA | -0.0437
ACTAAAAC | 0.1
TACGAAAA | 0.336
AGCTGTCC | -0.254
GGGTGTCA | 0.0495
AGAGTTTG | -0.0379

Sequence | PBM E-score
TACGCCTA | 0.208
CGTCACCA | 0.447
AAACCTGC | -0.203
CCCCGACC | -0.243
CGGCAACA | -0.016
AATAATGC | 0.176
TAGAGCGA | -0.114
ACTTAAGC | 0.032
CGGGACGA | -0.144
AAAAAGAG | -0.0307
AGACCGAG | -0.338
GCGAATAA | 0.13
AAGTCCAG | -0.279
CCAGGGCC | -0.394
GGAATGGA | -0.0692
ACGATAAG | -0.0804
AATTCTAC | 0.151
GCTTGCAA | -0.00376
TAATCTCA | 0.15
ACGGGCTA | -0.0788
CTTCTGAA | -0.0853
CCGCGACG | 0.00844
